Source: PubChem BioAssay (Tox21)
The inconclusive results got no clear call from the source; some entries with a clear call stand among them for comparison. For some of these results: No potency is given beside an inconclusive call; the fits are too rough. Active and inactive are the calls of the source. Unless noted, the call rests on the fitted dose curve; in most records, active means well fitted curve in the direction sought with a large enough effect in the repeat runs; inconclusive means weak or mixed curves; inactive means no such curve, though single readings can be large; an effect the other way counts as inactive or inconclusive.

Legend:
[1] = qHTS assay to identify small molecule agonists of the retinoic acid receptor (RAR) signaling pathway (AID 1159553); conditions: C3RL4 RARE luciferase reporter, agonist, 6 h; activation: at 73.3 µM (top of the series) unless noted; further: potency means the concentration at half of the fitted maximal effect; on activation: on the % scale 0 is the no-effect control and ±100 the full control effect
In short: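 In this cell-based screen, 1,000 C3RL4 cells per well were cultured overnight, dosed with test chemicals in DMSO for 6 hr, and assessed for RARE luciferase luminescence.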

[2] = qHTS assay to identify small molecule antagonists of the estrogen related receptor (ERR) signaling pathway from Tox21 library - cell viability counter screen (AID 1224834); further: potency means the concentration at half of the fitted maximal effect; nearly all actives have a fitted effect of over 30% in size
In short: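 Counter screen run in ERR cells (2,000 cells/well): cells pre-incubated 6 h, then treated with compounds for 17.5 h at 37 C. Fluorescence was read 30 min after CellTiter-Fluor addition.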

[3] = target: Luciferin 4-monooxygenase (Photinus pyralis) (UniProt P08659); experiment: qHTS assay to identify small molecule inhibitors of firefly luciferase (AID 1224835); further: potency means the concentration at half of the fitted maximal effect; nearly all actives have a fitted effect of over 25% in size
In short: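 Quantitative HTS format; KM concentrations of both substrates. Purified P. pyralis FLuc activity quantified from luminescence images.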

[4] = qHTS assay to identify small molecule agonists of the constitutive androstane receptor (CAR) signaling pathway - cell viability counter screen (AID 1224836); further: potency means the concentration at half of the fitted maximal effect; nearly all actives have a fitted effect of over 45% in size
In short: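 HepG2-CYP2B6-hCAR, 2500 cells/well, 4 h pre-incubation; cpd 15 conc + PK11195 0.75 uM final; 23 h, 37 C/5% CO2; CellTiter-Fluor, fluorescence.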

[5] = qHTS assay to identify small molecule antagonists of the constitutive androstane receptor (CAR) signaling pathway - cell viability counter screen (AID 1224837); further: potency means the concentration at half of the fitted maximal effect; nearly all actives have a fitted effect of over 45% in size
In short: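 CITCO at 50 nM final was added alongside compounds (15 concentrations) to double-stable hCAR/CYP2B6-2.2kb HepG2 cells. Following 23 hr at 37 C, cell viability was quantified by CellTiter-Fluor fluorescence intensity.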

[6] = target: Nuclear receptor subfamily 1 group I member 3 (Homo sapiens) (UniProt Q14994); experiment: qHTS assay to identify small molecule agonists of the constitutive androstane receptor (CAR) signaling pathway (AID 1224839); further: potency means the concentration at half of the fitted maximal effect; nearly all actives have a fitted effect of over 15% in size
In short: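 HepG2-CYP2B6-hCAR cells, 2500/well, 4 h pre-incubation; compounds 15 conc.; PK11195 0.75 uM final; 24 h, 37 C/5% CO2; ONE-Glo luciferase read.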

[7] = qHTS assay to identify small molecule antagonists of the estrogen related receptor signaling pathway with the pleiotropic PPARgamma coactivator (PGC) from Tox21 10K library - cell viability counter screen (AID 1224840; active means well fitted cell-killing curve with a large enough effect in the repeat runs, not every such curve was filed as active; inconclusive means weak or mixed curves, or effect the other way; inactive means no such curve, though single readings can be large or run the other way; further: potency means the concentration at half of the fitted maximal effect; nearly all actives have a fitted effect of over 40% in size)
In short: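 Readout: fluorescence intensity from CellTiter-Fluor after 30 min at 37 C/5% CO2. Preceded by 17.5 h treatment of PGC/ERR cells with DMSO-dissolved compounds, added 6 h post-seeding.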

[8] = qHTS assay to identify small molecule antagonists of the retinoic acid receptor (RAR) signaling pathway (AID 1159552; further: potency means the concentration at half of the fitted maximal effect; nearly all actives have a fitted effect of over 50% in size)
In short: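 Cells of the C3RL4 line were seeded, incubated overnight, then dosed with compounds in DMSO followed immediately by retinol (1 uM final). Six hours later luciferase detection reagent went in; signal was measured after 30 min at RT.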

[9] = qHTS assay to identify small molecule agonists of the hypoxia (HIF-1) signaling pathway - cell viability counter screen (AID 1224844; calls by dose curve; further: potency means the concentration at half of the fitted maximal effect; nearly all actives have a fitted effect of over 50% in size)
In short: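 In this counter screen, HRE-bla ME-180 cell viability after 17 hrs of compound exposure at 37C was read by CellTiter-Glo luminescence, multiplexed with the beta-lactamase reporter measurement.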

[10] = qHTS assay to identify small molecule antagonists of the estrogen related receptor signaling pathway with the pleiotropic PPARgamma coactivator (PGC) from Tox21 10K library (AID 1224841; call rule not given here; further: potency means the concentration at half of the fitted maximal effect; actives are mostly falling curves and most rising ones were filed inactive; nearly all actives have a fitted effect of over 50% in size)
In short: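 One-Glo luminescence, measured after half an hour at room temperature, quantified reporter output of PGC/ERR cells. These had been plated at 2,000 per well, incubated 6 h, dosed with compounds in DMSO, then kept 18 h at 37 C.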

[11] = target: Thyrotropin receptor (Homo sapiens) (UniProt P16473); experiment: qHTS assay to identify small molecule agonists of the thyroid stimulating hormone receptor (TSHR) signaling pathway (AID 1224843; calls by dose curve; further: on the % scale 0 is the no-effect control and ±100 the full control effect; nearly all actives have a fitted effect of over 45% in size); conditions: TSHR-HEK293 cells, cAMP HTRF, agonist mode, 30 min
In short: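 Using 15 concentrations per compound in triplicate, cAMP production was monitored in TSHR-HEK293 cells after 30 min compound incubation at RT; HTRF reagents followed, with fluorescence intensity recorded after 1 h.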

[12] = qHTS assay to identify small molecule antagonists of the estrogen related receptor (ERR) signaling pathway - cell viability counter screen (AID 1224818); further: potency means the concentration at half of the fitted maximal effect
In short: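 Viability of ERR cells, CellTiter-Fluor fluorescence; 17.5 h compound exposure at 37 C, DMSO vehicle; 30 min reagent incubation at 37 C/5% CO2.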

[13] = qHTS assay to identify small molecule antagonists of the estrogen related receptor signaling pathway with the pleiotropic PPARgamma coactivator (PGC) cell viability counter screen (AID 1224822; further: potency means the concentration at half of the fitted maximal effect)
In short: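 17.5 h compound treatment of PGC/ERR cells at 37 C; readout CellTiter-Fluor fluorescence; run alongside the PGC/ERR antagonist screen to flag cytotoxic compounds.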
Tags describe the fitted curve by direction and shape.

UniProt P16473, sequence (P16473 whole entry, looked up): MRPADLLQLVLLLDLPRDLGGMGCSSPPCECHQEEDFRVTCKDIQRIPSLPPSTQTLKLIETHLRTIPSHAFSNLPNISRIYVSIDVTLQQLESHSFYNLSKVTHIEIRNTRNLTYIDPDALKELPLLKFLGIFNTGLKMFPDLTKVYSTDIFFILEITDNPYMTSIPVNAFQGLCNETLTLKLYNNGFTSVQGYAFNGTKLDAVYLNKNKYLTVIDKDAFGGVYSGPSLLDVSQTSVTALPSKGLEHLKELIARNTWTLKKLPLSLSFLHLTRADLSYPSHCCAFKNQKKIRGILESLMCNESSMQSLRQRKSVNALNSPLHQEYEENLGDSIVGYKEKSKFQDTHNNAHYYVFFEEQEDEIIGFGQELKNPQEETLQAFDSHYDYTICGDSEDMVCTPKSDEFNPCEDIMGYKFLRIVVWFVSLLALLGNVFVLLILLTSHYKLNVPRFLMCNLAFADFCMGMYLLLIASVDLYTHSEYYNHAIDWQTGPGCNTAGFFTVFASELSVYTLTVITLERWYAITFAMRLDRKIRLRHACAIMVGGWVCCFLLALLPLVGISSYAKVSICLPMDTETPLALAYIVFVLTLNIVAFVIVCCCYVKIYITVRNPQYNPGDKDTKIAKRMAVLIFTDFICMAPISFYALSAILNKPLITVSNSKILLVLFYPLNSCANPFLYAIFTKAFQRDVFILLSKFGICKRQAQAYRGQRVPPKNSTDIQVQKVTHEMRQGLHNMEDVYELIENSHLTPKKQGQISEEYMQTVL
UniProt P08659, sequence (P08659 whole entry, looked up): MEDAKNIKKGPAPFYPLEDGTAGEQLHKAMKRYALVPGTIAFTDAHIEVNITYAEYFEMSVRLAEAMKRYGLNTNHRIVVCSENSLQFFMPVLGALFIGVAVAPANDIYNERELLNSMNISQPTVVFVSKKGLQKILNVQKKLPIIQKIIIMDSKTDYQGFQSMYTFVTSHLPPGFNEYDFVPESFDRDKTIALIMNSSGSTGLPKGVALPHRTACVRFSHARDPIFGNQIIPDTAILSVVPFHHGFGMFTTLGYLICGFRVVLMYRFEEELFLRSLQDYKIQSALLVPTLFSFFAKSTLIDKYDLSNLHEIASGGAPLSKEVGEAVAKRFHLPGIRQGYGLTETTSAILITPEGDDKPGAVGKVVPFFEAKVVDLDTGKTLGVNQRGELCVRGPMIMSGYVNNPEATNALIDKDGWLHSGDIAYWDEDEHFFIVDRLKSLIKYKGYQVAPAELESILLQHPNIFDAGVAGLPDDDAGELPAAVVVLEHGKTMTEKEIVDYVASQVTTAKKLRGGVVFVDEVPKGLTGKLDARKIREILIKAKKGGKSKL
UniProt Q14994, sequence (Q14994 whole entry, looked up): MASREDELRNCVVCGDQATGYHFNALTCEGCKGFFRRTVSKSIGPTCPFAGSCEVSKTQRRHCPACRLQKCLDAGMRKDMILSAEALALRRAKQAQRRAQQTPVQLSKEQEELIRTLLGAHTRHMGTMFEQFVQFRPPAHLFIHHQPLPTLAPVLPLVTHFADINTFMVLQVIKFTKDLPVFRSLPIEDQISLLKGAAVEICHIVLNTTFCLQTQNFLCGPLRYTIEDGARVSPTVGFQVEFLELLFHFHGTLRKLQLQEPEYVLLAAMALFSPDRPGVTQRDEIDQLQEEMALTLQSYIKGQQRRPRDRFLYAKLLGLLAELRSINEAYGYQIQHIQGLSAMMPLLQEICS

Structure (SMILES): NC(=O)n1c(O)c(C(=O)c2cccs2)c2cc(Cl)ccc21
- Potency [1]: inactive
- Potency [2]: active: 23.7 µM
- Potency [3]: active: 30.9 µM
- Potency [4]: inconclusive [cytotoxic, partial curve]
- Potency [5]: inconclusive [cytotoxic, partial curve, poor fit]
- Potency [6]: active: 13.3 µM
- Potency [7]: inconclusive [cytotoxic, partial curve]

Structure (SMILES): CCCCCCC(C)Nc1ccc(Nc2ccccc2)cc1 (stereo not drawn)
- Potency [8]: inconclusive [inhibitor, single point]
- Potency [2]: inconclusive [cytotoxic, single point]
- Potency [9]: inconclusive [cytotoxic, single point]

Structure (SMILES): Cc1oc(-c2ccccc2)nc1CCOc1ccc(C[C@H](Nc2ccccc2C(=O)c2ccccc2)C(=O)O)cc1
- Potency [1]: inconclusive [activator, full curve, poor fit]
- Potency [2]: inconclusive [cytotoxic, partial curve]
- Potency [3]: inconclusive [inhibitor, single point]
- Potency [4]: inconclusive [cytotoxic]
- Potency [5]: inconclusive [cytotoxic, single point]
- Potency [7]: inconclusive [cytotoxic, partial curve]
- Potency [10]: inconclusive [falling, single point]
- Potency ([11]; activation: at 92.4 µM (top of the series) unless noted): inactive
- Potency [9]: inconclusive [cytotoxic, partial curve, poor fit]

Structure (SMILES): CN1CCN(CCCN2c3ccccc3Sc3ccc(Cl)cc32)CC1
- Potency [1]: inconclusive [inhibitor, partial curve, poor fit]
- Potency [12]: inconclusive [cytotoxic]
- Potency [13]: active: 27.6 µM
- Potency [5]: inconclusive [cytotoxic, partial curve, poor fit]
- Potency [7]: inconclusive [cytotoxic, partial curve, poor fit]
- Potency [9]: active: 21.3 µM

Structure (SMILES): COC(=O)C1=C(C)NC(C)=C(C(=O)OC)C1c1ccccc1[N+](=O)[O-]
- Potency [10]: inconclusive [falling, partial curve, poor fit]

Structure (SMILES): CCN(CC)CCOc1ccc(/C(=C(\Cl)c2ccccc2)c2ccccc2)cc1
- activation ([11]; at 42.5 µM (top of the series)): inconclusive: 26.1%
- activation ([11]; at 92.4 µM (top of the series)): inconclusive: 20.7%
